Some of the results follow. Many values rest on one well or one pass, so single values are uncertain.
Key:
Experiment in all cases: cell count relative to DMSO control; melanoma cells; higher = more viable cells
Conditions in all cases: library dose: low library concentration; 72 h
COLO792 = system: COLO792
COLO800 = system: COLO800
COLO829 = system: COLO829
G361 = system: G361
IPC-298 = system: IPC-298
IST-MEL1 = system: IST-MEL1
LB2518-MEL = system: LB2518-MEL
LOXIMVI = system: LOXIMVI
MEL-HO = system: MEL-HO
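Further: cell number obtained by counting DAPI-stained nuclei in high-throughput microscope images with image analysis software, screen run in 1,536-well plates.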

| SMILES | cell count (COLO792) | cell count (COLO800) | cell count (COLO829) | cell count (G361) | cell count (IPC-298) | cell count (IST-MEL1) | cell count (LB2518-MEL) | cell count (LOXIMVI) | cell count (MEL-HO) |
| --- | --- | --- | --- | --- | --- | --- | --- | --- | --- |
| O=C(/C=C/c1cccnc1)NCCCCC1CCN(C(=O)c2ccccc2)CC1 + N#Cc1c(O)c2c(-c3ccc(-c4ccccc4O)cc3)csc2[nH]c1=O [A769662] (first compound 0.01 µM, partner dose 2 µM) | 51.1% | 33.9% | 55.2% | 6.81% | 40.2% | 69.8% | 90.4% | 67.6% | 68.2% |
| CC1(C)CCC(c2ccc(Cl)cc2)=C(CN2CCN(c3ccc(C(=O)NS(=O)(=O)c4ccc(N[C@H](CCN5CCOCC5)CSc5ccccc5)c(S(=O)(=O)C(F)(F)F)c4)cc3)CC2)C1 + O=C(Nc1ccccc1)c1cc([N+](=O)[O-])ccc1Cl [GW9662] (first compound 0.4 µM, partner dose 2 µM) | 76.6% | 52.2% | 91.1% | 91.5% | 102% | 69.1% | 83.4% | 52.5% | 94.3% |
| CC1(C)CCC(c2ccc(Cl)cc2)=C(CN2CCN(c3ccc(C(=O)NS(=O)(=O)c4ccc(N[C@H](CCN5CCOCC5)CSc5ccccc5)c(S(=O)(=O)C(F)(F)F)c4)cc3)CC2)C1 + Cc1cc(N2CCOCC2)cc2[nH]c(-c3c(NC[C@@H](O)c4cccc(Cl)c4)cc[nH]c3=O)nc12 [BMS536924] (first compound 0.4 µM, partner dose 0.2 µM) | 44.1% | 38.9% | 112% | 92.4% | 94.7% | 90.2% | 83.9% | 63.3% | 77.2% |
| O=C(/C=C/c1cccnc1)NCCCCC1CCN(C(=O)c2ccccc2)CC1 + NC(=O)Nc1cc(-c2cccc(F)c2)sc1C(=O)N[C@H]1CCCNC1 [AZD7762] (first compound 0.01 µM, partner dose 0.02 µM) | 47.8% | 26.1% | 81.2% | 11% | 44% | 77.3% | 113% | 90% | 39.8% |
| O=C(/C=C/c1cccnc1)NCCCCC1CCN(C(=O)c2ccccc2)CC1 + CC(C)CCN1c2nc(Nc3cc(F)c(O)c(F)c3)ncc2N(C)C(=O)C1C [BID1870] (first compound 0.01 µM, partner dose 0.2 µM) | 53.5% | 25.8% | 43.5% | 9.64% | 39.6% | 66% | 80.9% | 77.7% | 40.8% |
| Cc1ccc(Nc2nccc(N(C)c3ccc4c(C)n(C)nc4c3)n2)cc1S(N)(=O)=O [Pazopanib] + CC(C)(C)c1cnc(CSc2cnc(NC(=O)C3CCNCC3)s2)o1 [SNS-032] (first compound 0.4 µM, partner dose 0.01 µM) | 101% | 107% | 96.5% | 97.7% | 91.8% | 101% | 105% | 108% | 104% |
| Cc1ccc(Nc2nccc(N(C)c3ccc4c(C)n(C)nc4c3)n2)cc1S(N)(=O)=O [Pazopanib] + CO[C@@H]1[C@H](N(C)C(=O)c2ccccc2)C[C@H]2O[C@]1(C)n1c3ccccc3c3c4c(c5c6ccccc6n2c5c31)C(=O)NC4 [Midostaurin] (first compound 0.4 µM, partner dose 0.08 µM) | 88% | 123% | 89.8% | 99.2% | 72.5% | 100% | 71.9% | 92.1% | 82.8% |
| CC1(C)CCC(c2ccc(Cl)cc2)=C(CN2CCN(c3ccc(C(=O)NS(=O)(=O)c4ccc(N[C@H](CCN5CCOCC5)CSc5ccccc5)c(S(=O)(=O)C(F)(F)F)c4)cc3)CC2)C1 + Oc1cc(-c2nc(-c3ccccc3)[nH]c2-c2ccncc2)ccc1Cl [L779450] (first compound 0.4 µM, partner dose 0.2 µM) | 77.2% | 63.3% | 99.2% | 77.5% | 84% | 72.6% | 70.5% | 27.9% | 75.1% |
| O=C(/C=C/c1cccnc1)NCCCCC1CCN(C(=O)c2ccccc2)CC1 + COc1cc2ncnc(Nc3ccc(Oc4ccccc4)cc3)c2cc1OC [SrcI1] (first compound 0.01 µM, partner dose 2 µM) | 54.4% | 39% | 84.1% | 9.68% | 44.6% | 75.7% | 95.7% | 78.1% | 68.8% |
| CC1(C)CCC(c2ccc(Cl)cc2)=C(CN2CCN(c3ccc(C(=O)NS(=O)(=O)c4ccc(N[C@H](CCN5CCOCC5)CSc5ccccc5)c(S(=O)(=O)C(F)(F)F)c4)cc3)CC2)C1 + COc1cc(N2CCC(N3CCN(C)CC3)CC2)ccc1Nc1ncc(Cl)c(Nc2ccccc2S(=O)(=O)C(C)C)n1 [NVP-TAE684] (first compound 0.4 µM, partner dose 0.08 µM) | 64.1% | 54% | 119% | 88.2% | 98.1% | 73.2% | 120% | 61.7% | 76.3% |
| CC1(C)CCC(c2ccc(Cl)cc2)=C(CN2CCN(c3ccc(C(=O)NS(=O)(=O)c4ccc(N[C@H](CCN5CCOCC5)CSc5ccccc5)c(S(=O)(=O)C(F)(F)F)c4)cc3)CC2)C1 + CCN(CC)CCCCNc1ncc2cc(-c3cc(OC)cc(OC)c3)c(NC(=O)NC(C)(C)C)nc2n1 [PD173074] (first compound 0.4 µM, partner dose 0.1 µM) | 58.2% | 90.2% | 108% | 83.9% | 98% | 79.5% | 85.7% | 52.5% | 71.9% |
| O=C(/C=C/c1cccnc1)NCCCCC1CCN(C(=O)c2ccccc2)CC1 + O=C1NC(=O)/C(=C/c2ccc(-c3ccc(F)cc3O)o2)S1 [AS252424] (first compound 0.01 µM, partner dose 1 µM) | 39.8% | 15.2% | 64.3% | 6.71% | 39.5% | 70.5% | 77.6% | 71.8% | 63.8% |
| O=C(/C=C/c1cccnc1)NCCCCC1CCN(C(=O)c2ccccc2)CC1 + COc1ccc2c(c1)CCC1C2CCC2(C)C(NCCCCCCN3C(=O)C=CC3=O)CCC12 [U73122] (first compound 0.01 µM, partner dose 0.4 µM) | 49.7% | 23.1% | 69.7% | 8.12% | 43.1% | 70.3% | 79.2% | 91.1% | 44.4% |
| O=C(/C=C/c1cccnc1)NCCCCC1CCN(C(=O)c2ccccc2)CC1 + CO[C@@H]1[C@H](N(C)C(=O)c2ccccc2)C[C@H]2O[C@]1(C)n1c3ccccc3c3c4c(c5c6ccccc6n2c5c31)C(=O)NC4 [Midostaurin] (first compound 0.01 µM, partner dose 0.08 µM) | 50.2% | 30.4% | 64.5% | 9.06% | 35.4% | 58.7% | 80.7% | 62.3% | 34.2% |
| CC1(C)CCC(c2ccc(Cl)cc2)=C(CN2CCN(c3ccc(C(=O)NS(=O)(=O)c4ccc(N[C@H](CCN5CCOCC5)CSc5ccccc5)c(S(=O)(=O)C(F)(F)F)c4)cc3)CC2)C1 + CCc1ccc(CCOc2ccc(CC3SC(=O)NC3=O)cc2)nc1 [pioglitazone] (first compound 0.4 µM, partner dose 2 µM) | 63.6% | 52.1% | 108% | 85.2% | 98.9% | 81.9% | 82.1% | 39.3% | 84.5% |
| O=C(/C=C/c1cccnc1)NCCCCC1CCN(C(=O)c2ccccc2)CC1 + CCc1ccc(CCOc2ccc(CC3SC(=O)NC3=O)cc2)nc1 [pioglitazone] (first compound 0.01 µM, partner dose 2 µM) | 52.7% | 16.7% | 60.2% | 8.71% | 40.3% | 64.3% | 63.3% | 87.5% | 46.6% |
| Cc1ccc(Nc2nccc(N(C)c3ccc4c(C)n(C)nc4c3)n2)cc1S(N)(=O)=O [Pazopanib] + O=C(Nc1cccc(Cl)c1)Nc1ncc(CCNc2ncnc3ccsc23)s1 [SNS314] (first compound 0.4 µM, partner dose 0.0008 µM) | 92.9% | 94% | 86.6% | 87.4% | 82% | 90.3% | 112% | 111% | 86.3% |
| O=C(/C=C/c1cccnc1)NCCCCC1CCN(C(=O)c2ccccc2)CC1 + CN(NC(=O)CC(=O)NN(C)C(=S)c1ccccc1)C(=S)c1ccccc1 [STA4783] (first compound 0.01 µM, partner dose 0.006 µM) | 47.6% | 49.4% | 58.3% | 7.96% | 40.7% | 45.4% | 61.9% | 108% | 38.7% |
| O=C(/C=C/c1cccnc1)NCCCCC1CCN(C(=O)c2ccccc2)CC1 + COc1cc(Nc2ncc(F)c(Nc3ccc4c(n3)NC(=O)C(C)(C)O4)n2)cc(OC)c1OC [Tamatinib] (first compound 0.01 µM, partner dose 0.4 µM) | 44.3% | 22% | 67.5% | 13.8% | 45.6% | 67.3% | 71.8% | 67.9% | 37.4% |
| CC1(C)CCC(c2ccc(Cl)cc2)=C(CN2CCN(c3ccc(C(=O)NS(=O)(=O)c4ccc(N[C@H](CCN5CCOCC5)CSc5ccccc5)c(S(=O)(=O)C(F)(F)F)c4)cc3)CC2)C1 + COc1cc(Nc2ncc(F)c(Nc3ccc4c(n3)NC(=O)C(C)(C)O4)n2)cc(OC)c1OC [Tamatinib] (first compound 0.4 µM, partner dose 0.4 µM) | 7.31% | 24.6% | 75.2% | 68.9% | 84.7% | 81.9% | 35.8% | 49.9% | 70.6% |
| CC1(C)CCC(c2ccc(Cl)cc2)=C(CN2CCN(c3ccc(C(=O)NS(=O)(=O)c4ccc(N[C@H](CCN5CCOCC5)CSc5ccccc5)c(S(=O)(=O)C(F)(F)F)c4)cc3)CC2)C1 + Oc1nc(-c2ccc(C(F)(F)F)cc2)nc2c1CSCC2 [XAV939] (first compound 0.4 µM, partner dose 2 µM) | 43.6% | 72.5% | 97.5% | 82% | 95.7% | 74.4% | 75.6% | 64.5% | 85.1% |

Reference: the supplement of paper PMC4604168 (melanoma cell lines)
